In PubChem BioAssay AID492947 (National Center for Advancing Translational Sciences (NCATS), 2010):
Hit rate of the full screen: of about 330,000 compounds, about 80 (0.02%) were called active. Inconclusive results, whose numbers are uncertain, are shown with a selection of clear calls. The call rests on the fitted dose curve; in most records, active means well fitted activation curve with a large enough effect; inconclusive means small, poorly fitted or top-dose-only effect; inactive means flat fitted curve, though single readings scatter. No potency is given beside an inconclusive call; the fits are too rough.

Biological target: Beta-2 adrenergic receptor (Homo sapiens) (UniProt P07550)
Experiment: qHTS assay of beta-arrestin-biased ligands of beta2-adrenergic receptor; further: nearly all actives have a fitted effect of over 65% in size
Conditions: beta-arrestin recruitment to beta2AR, cell-based reporter; series mostly up to 46.1 µM
Procedure, shortened: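 Tango cells (recombinant beta2-AR with recombinant beta-arrestin; recruitment releases tTA driving luciferase) were treated with compounds titrated up to 46 microM for 18 hr at 37 degrees C. Luminescence gave %Activity, and concentration-response curves were curve-classified.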
Potency means the concentration at half of the fitted maximal effect; tags describe the fitted curve by direction and shape.

UniProt P07550, sequence (P07550 whole entry, looked up): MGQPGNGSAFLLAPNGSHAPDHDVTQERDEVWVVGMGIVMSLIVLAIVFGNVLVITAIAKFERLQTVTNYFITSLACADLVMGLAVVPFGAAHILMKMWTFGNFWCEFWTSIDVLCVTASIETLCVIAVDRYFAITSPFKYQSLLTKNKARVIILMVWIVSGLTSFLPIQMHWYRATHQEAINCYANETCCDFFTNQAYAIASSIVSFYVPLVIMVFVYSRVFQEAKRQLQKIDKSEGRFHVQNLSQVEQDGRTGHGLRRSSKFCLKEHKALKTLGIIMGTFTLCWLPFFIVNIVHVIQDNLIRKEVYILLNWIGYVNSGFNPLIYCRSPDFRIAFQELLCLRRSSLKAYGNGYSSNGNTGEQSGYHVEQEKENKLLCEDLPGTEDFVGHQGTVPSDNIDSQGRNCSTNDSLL

Structure (SMILES) | Potency
OCCCNC(=S)Nc1ccc(Nc2ccccc2)cc1 | inactive
CC1=C/C(=N\NC(=S)NCc2ccccc2)CC1 | active: 7.08 µM
COc1ccc(/C=N/Nc2nnc(Cc3ccc(OC)c(OC)c3)c(=O)[nH]2)cc1 | inconclusive [rising, single point]
COc1ccc2c(c1)c(=O)c(C(=O)c1ccccc1)cn2Cc1ccccc1 | inconclusive [rising, single point]
COc1ccc(C)cc1-n1nnnc1SCC(=O)N1CCC(C(=O)Nc2nccs2)CC1 | inconclusive [rising, single point]
Cc1ccc(C(C[N+](=O)[O-])Sc2ccc(N)cc2)cc1 (configuration not stated) | inconclusive [rising, single point]
CC1CN(CCCCSc2ccc(Cl)cc2)CC(C)O1 (configuration not stated) | inconclusive [rising, single point]
Nc1cc(CN2C(=O)c3ccccc3C2=O)cc(Cl)c1O | inactive
Cc1nnnn1/C(=C\c1ccccc1)C(=O)OCC(=O)Nc1ccc(Cl)cc1F | inconclusive [rising, single point]
CC(C)C(=O)NC(c1ccco1)c1ccc2cccnc2c1O (configuration not stated) | inconclusive [activator, partial curve]
CCC(=O)NC(c1ccccc1OC)c1ccc2cccnc2c1O (configuration not stated) | inconclusive [activator, partial curve]
CCN(CC)c1ccc2c(Cl)c(Br)c(=O)oc2c1 | inactive
O=C(Nc1nc(-c2ccccn2)cs1)Nc1ccc(F)cc1F | inconclusive [rising, partial curve, poor fit]
COc1ccc(-c2cn3cccnc3n2)cc1F | inconclusive [rising, single point]
COc1cccc(/C=N/n2c(=S)n(C)c3ccccc32)c1OC | inconclusive [rising, single point]
Cc1ccc(NC(=O)NCc2nc3ccccc3n2C)cc1 | inactive
Cc1cc(Nc2cccc([N+](=O)[O-])c2)c2cccc(C)c2n1 | inactive
COc1ccc(C=Nc2cccnc2N)cc1 | inactive
CN(C)/C=C/C(=O)c1ccc(Oc2ncccn2)cc1 | inconclusive [activator, partial curve]
CCc1cc(=O)oc2cc3occ(C)c3cc12 | inconclusive [rising, single point]
CCOc1cccc(-c2c(C(=O)N/N=C/c3ccoc3)nnn2-c2nonc2N)c1 | inactive
CN(C)C=Nc1nonc1-c1ccc(Cl)cc1 | inconclusive [rising, single point]
COc1ccccc1CN1C[C@@H]2C[C@@H](c3ccc4nsnc4c3)N3CCC[C@@]23C1=O | inconclusive [rising, single point]
CCOC(=O)/C(C#N)=C/Nc1ccsc1C(=O)OC | inconclusive [rising, single point]

Structure (SMILES) | Potency
Cc1cccnc1Nc1nc(-c2ccccn2)cs1 | inconclusive [activator, full curve]
CN(C)c1ccc(NC(=S)c2ccc3ccccc3n2)cc1 | inconclusive [activator, full curve]
COCC(=O)N1CCC(Oc2ccc(C(=O)NCc3cc(C)no3)cc2)CC1 | inconclusive [rising, single point]
Cc1ccc(-c2ccc(SCC(=O)N3CCc4ccccc43)nn2)cc1 | inconclusive [rising, single point]
Cn1nc(C(=O)N2CCN(S(=O)(=O)c3ccc(Cl)cc3)CC2)c2ccccc2c1=O | inactive
COc1ccc(C(c2nnnn2C(C)(C)C)N2CCN(c3nc4ccccc4s3)CC2)cc1 (configuration not stated) | inactive
CCCCC(=O)/C=C/n1c(=S)oc2ccccc21 | inconclusive [rising, single point]
C=CCNC(=S)NNc1ncnc2sc3c(c12)CC(C)(C)OC3 | inconclusive [rising, single point]
O=C1C2C(C(=O)N1/N=C/c1cc(Br)cc([N+](=O)[O-])c1O)C1C=CC2C12CC2 (configuration not stated) | inactive
O=C1c2ccccc2CN1c1ccccc1 | inconclusive [rising, single point]
CCCCCCC[C@@H](C/C=C/CCC(=O)N(C)C/C(=C/Cl)C/C(=C\C(=O)N1CC(OC)=CC1=O)OC)OC | inconclusive [activator, full curve]
COc1ccc(CCNc2nc(-c3ccccn3)cs2)cc1OC | inconclusive [activator, partial curve]
O=C(Cc1cccs1)N/N=C/C=C/c1ccco1 | inconclusive [rising, single point]
Cc1onc(-c2ccccc2)c1C(=O)N/N=C/C(Br)=C/c1ccccc1 | inconclusive [rising, single point]
Cc1cc(C)c(S(=O)(=O)N2CCN(C(=O)CCn3nc(C)c(C)c3C)CC2)c(C)c1 | inactive
O=C(CSc1cccc[n+]1[O-])c1ccccc1Br | inconclusive [rising, single point]
C/C(=N/NC(N)=S)c1ccc(Br)s1 | inconclusive [rising, single point]
NC(=S)N/N=C/c1ccc(-c2ccc(Cl)c(Cl)c2)o1 | inconclusive [rising, single point]
CCc1cc(C(=O)N(CC(C)C)c2c(N)n(Cc3ccccc3)c(=O)[nH]c2=O)sc1C | inconclusive [rising, single point]
CSC1=C(C#N)C(c2ccccc2Cl)C2=C(N1)c1ccccc1C2=O (configuration not stated) | inconclusive [rising, single point]
CN(C)c1nc(N/N=C/c2ccccc2O)nc(Nc2ccc(F)cc2)n1 | inconclusive [rising, single point]
Fc1ccccc1/C=N/Nc1ncnc2ccccc12 | inconclusive [rising, single point]
CC1CCCC/C1=N\NC(=S)NCCc1ccccc1 (configuration not stated) | inconclusive [rising, single point]
